From patent publication US20090291999A1, “Agent Exhibiting a Neurotropic, Neuromodulator, Cerebrovascular and Anti-Stroke Activity” (AKHAPKINA, Valentina Ivanovna, priority 2006, published 2009)

System: rats with distal occlusion of medial cerebral artery (OMCA)
Assay: Ischemic stroke (OMCA) model: neurologic status on McGrow's Stroke-index scale
Method: For this study a model of local cerebral ischemia was used for rats with distal occlusion of medial cerebral artery (OMCA), which was first described by S. T. Chen (1989). The heads of animals, which were narcotized with chloral hydrate (300 mg/Kg, intraperitoneally), were rigidly fixed in a lateral position, left side upwards. After cutting the skin in the middle between the left auricle and the left eye temporal muscle fibers were moved apart up to the skull surface. Using a dental drilling machine with a bur 0.5 mm in diameter, a hole app.
With the use of a microscope (Olympus SZ-CTV), under a big magnification (14.0×3.3), a special metal hook was placed under the left medial cerebral artery. Occlusion of the medial cerebral artery was performed by a method of electrocoagulation proximally the place of its bifurcation into the frontal and the parietal branches. At this time in the visual field of the microscope stoppage of the blood flow along the medial cerebral artery upstream the place of occlusion could be observed. After the operation the wound was closed layer-by-layer, and ipsilateral occlusion of the common carotid artery was performed.
Neurologic status of the animals was determined on the McGrow's Stroke-index scale for Mongolian gerbils (McGrow, 1977) in the modification by I. V. Gannushkina (1996). Evaluation was carried out by scores. If several symptoms of neurological deficit were present in animals, status severity was determined as a sum of corresponding scores. Numbers of rats with light (Stroke-index from 0.5 to 2.5) and severe (Stroke-index from 3 to 10) neurologic symptomatology were counted.
The studies were carried out on male rats of the Vistar line (250-300 grams) held in a vivarium with free access to meals and water and at 12-hour mode of changing day and night.
In the course of the study the animals were randomly distributed over 11 groups. Phenotropil in doses of 100 mg/Kg, 200 mg/Kg and 300 mg/Kg was injected intraperitoneally in three groups of animals 60 minutes prior to the operation and in three groups of animals in 5 minutes after the operation. A saline was injected in falsely operated animals. Then the solutions were injected once on the 2nd and the 3rd days. The solutions were injected strictly at the same time of the days±3 minutes.

[1] = Group 4: 200 mg/Kg, falsely operated, 1 day
[2] = Group 4: 200 mg/Kg, falsely operated, 2 days
[3] = Group 4: 200 mg/Kg, falsely operated, 3 days
[4] = Group 6: 100 mg/Kg intraperitoneally 60 minutes prior to OMCA, 1 day
[5] = Group 6: 100 mg/Kg intraperitoneally 60 minutes prior to OMCA, 2 days
[6] = Group 6: 100 mg/Kg intraperitoneally 60 minutes prior to OMCA, 3 days
[7] = Group 7: 200 mg/Kg intraperitoneally 60 minutes prior to OMCA, 1 day
[8] = Group 7: 200 mg/Kg intraperitoneally 60 minutes prior to OMCA, 2 days
[9] = Group 7: 200 mg/Kg intraperitoneally 60 minutes prior to OMCA, 3 days
[10] = Group 8: 300 mg/Kg intraperitoneally 60 minutes prior to OMCA, 1 day
[11] = Group 8: 300 mg/Kg intraperitoneally 60 minutes prior to OMCA, 2 days
[12] = Group 8: 300 mg/Kg intraperitoneally 60 minutes prior to OMCA, 3 days
[13] = Group 9: 100 mg/Kg intraperitoneally in 5 minutes after OMCA, 1 day
[14] = Group 9: 100 mg/Kg intraperitoneally in 5 minutes after OMCA, 2 days
[15] = Group 9: 100 mg/Kg intraperitoneally in 5 minutes after OMCA, 3 days
[16] = Group 10: 200 mg/Kg intraperitoneally in 5 minutes after OMCA, 1 day
[17] = Group 10: 200 mg/Kg intraperitoneally in 5 minutes after OMCA, 2 days
[18] = Group 10: 200 mg/Kg intraperitoneally in 5 minutes after OMCA, 3 days
[19] = Group 11: 300 mg/Kg intraperitoneally in 5 minutes after OMCA, 1 day
[20] = Group 11: 300 mg/Kg intraperitoneally in 5 minutes after OMCA, 2 days
[21] = Group 11: 300 mg/Kg intraperitoneally in 5 minutes after OMCA, 3 days

## NC(=O)CN1CC(c2ccccc2)CC1=O (stereo not drawn) [Phenotropil, N-carbomoyl-methyl-4-phenyl-2-pyrrolidon]
[1]
  Number of animals with flabbiness, slowness of motions: 4
  Number of animals with manege movements: 0
  Number of animals with tremor: 2
  Number of animals with unilateral semiptosis: 3
[2]
  Number of animals with flabbiness, slowness of motions: 0
  Number of animals with manege movements: 0
  Number of animals with tremor: 0
  Number of animals with unilateral semiptosis: 4
[3]
  Number of animals with flabbiness, slowness of motions: 0
  Number of animals with manege movements: 0
  Number of animals with tremor: 0
  Number of animals with unilateral semiptosis: 0
[4]
  Number of animals with flabbiness, slowness of motions: 2
  Number of animals with manege movements: 0
  Number of animals with tremor: 2
  Number of animals with unilateral semiptosis: 4
[5]
  Number of animals with flabbiness, slowness of motions: 1
  Number of animals with manege movements: 0
  Number of animals with tremor: 0
  Number of animals with unilateral semiptosis: 5
[6]
  Number of animals with flabbiness, slowness of motions: 1
  Number of animals with manege movements: 0
  Number of animals with tremor: 0
  Number of animals with unilateral semiptosis: 3
[7]
  Number of animals with flabbiness, slowness of motions: 3
  Number of animals with manege movements: 0
  Number of animals with tremor: 3
  Number of animals with unilateral semiptosis: 4
[8]
  Number of animals with flabbiness, slowness of motions: 1
  Number of animals with manege movements: 0
  Number of animals with tremor: 0
  Number of animals with unilateral semiptosis: 5
[9]
  Number of animals with flabbiness, slowness of motions: 1
  Number of animals with manege movements: 0
  Number of animals with tremor: 0
  Number of animals with unilateral semiptosis: 3
[10]
  Number of animals with flabbiness, slowness of motions: 2
  Number of animals with manege movements: 0
  Number of animals with tremor: 2
  Number of animals with unilateral semiptosis: 4
[11]
  Number of animals with flabbiness, slowness of motions: 1
  Number of animals with manege movements: 0
  Number of animals with tremor: 0
  Number of animals with unilateral semiptosis: 5
[12]
  Number of animals with flabbiness, slowness of motions: 0
  Number of animals with manege movements: 0
  Number of animals with tremor: 0
  Number of animals with unilateral semiptosis: 3
[13]
  Number of animals with flabbiness, slowness of motions: 5
  Number of animals with manege movements: 0
  Number of animals with tremor: 3
  Number of animals with unilateral semiptosis: 4
[14]
  Number of animals with flabbiness, slowness of motions: 3
  Number of animals with manege movements: 0
  Number of animals with tremor: 0
  Number of animals with unilateral semiptosis: 5
[15]
  Number of animals with flabbiness, slowness of motions: 2
  Number of animals with manege movements: 0
  Number of animals with tremor: 0
  Number of animals with unilateral semiptosis: 3
[16]
  Number of animals with flabbiness, slowness of motions: 5
  Number of animals with manege movements: 0
  Number of animals with tremor: 3
  Number of animals with unilateral semiptosis: 3
[17]
  Number of animals with flabbiness, slowness of motions: 3
  Number of animals with manege movements: 0
  Number of animals with tremor: 0
  Number of animals with unilateral semiptosis: 4
[18]
  Number of animals with flabbiness, slowness of motions: 1
  Number of animals with manege movements: 0
  Number of animals with tremor: 0
  Number of animals with unilateral semiptosis: 3
[19]
  Number of animals with flabbiness, slowness of motions: 4
  Number of animals with manege movements: 0
  Number of animals with tremor: 3
  Number of animals with unilateral semiptosis: 4
[20]
  Number of animals with flabbiness, slowness of motions: 2
  Number of animals with manege movements: 0
  Number of animals with tremor: 0
  Number of animals with unilateral semiptosis: 5
[21]
  Number of animals with flabbiness, slowness of motions: 1
  Number of animals with manege movements: 0
  Number of animals with tremor: 0
  Number of animals with unilateral semiptosis: 3
